Where “and” joins values, the source holds several entries; their conditions need not be identical. Equal entries are not always repeated. For some assays here: “Side channel” marks fits to a control or component signal instead of the main read-out. Calls of active or inactive are those of the source. Where a call stands in place of a potency, no number is given. Unless noted, calls come from the whole dose curve.
Assays:
[1] = Cell Viability - Hek293 (AID 427;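 active = compounds whose dose-response curve shows a full or clear partial loss of cell viability, called from curve shape rather than a numeric limit; inconclusive = weak partial curves or an effect only at the top dose; inactive = no dose-dependent loss of viability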;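 note: potency is the fitted concentration of half-maximal effect; cells exposed to compound for 40 hours at 37 °C before reading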); settings: qHTS
Procedure, shortened: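 HEK293 cells in complete medium were exposed to compound for 40 hr at 37 °C, then cellular ATP was read by CellTiter-Glo luminescence. Data were normalized to DMSO (basal) and 100 uM tamoxifen (100% inhibition), and AC50 came from Hill fits.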

[2] = Cell Viability - LYMP2-005 (AID 967; active = well fitted curve in the direction sought with a large enough effect; inconclusive = small, poorly fitted or top-dose-only effect, or another doubt; inactive = no such curve, though single readings can be large; an effect the other way counts as inactive or inconclusive; note: potency is the fitted concentration of half-maximal effect); settings: LYMP2-005 lymphoblastoid cell viability; series mostly up to 92.2 µM
Procedure, shortened: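 Steps: seed 2500 LYMP2-005 cells/well, incubate 5 h at 37 C, add compound, incubate 24 h at 37 C, add CellTiter-Glo, wait 30 min at RT, read luminescence. Concentration-response data fitted to Hill equation for AC50.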

[3] = target: Estrogen receptor (Homo sapiens) (UniProt P03372); assay: qHTS assay for small molecule agonists of estrogen receptor alpha signaling (AID 588514); settings: ER-alpha-UAS-bla HEK293, beta-lactamase ratio, 18 h; activation: at 76.8 µM (top of the series), percent of full estradiol response, vehicle zero unless noted; note: nearly all actives have a fitted effect of over 70% in size; note: potency is the fitted concentration of half-maximal effect
UniProt P03372, sequence (P03372 whole entry, looked up): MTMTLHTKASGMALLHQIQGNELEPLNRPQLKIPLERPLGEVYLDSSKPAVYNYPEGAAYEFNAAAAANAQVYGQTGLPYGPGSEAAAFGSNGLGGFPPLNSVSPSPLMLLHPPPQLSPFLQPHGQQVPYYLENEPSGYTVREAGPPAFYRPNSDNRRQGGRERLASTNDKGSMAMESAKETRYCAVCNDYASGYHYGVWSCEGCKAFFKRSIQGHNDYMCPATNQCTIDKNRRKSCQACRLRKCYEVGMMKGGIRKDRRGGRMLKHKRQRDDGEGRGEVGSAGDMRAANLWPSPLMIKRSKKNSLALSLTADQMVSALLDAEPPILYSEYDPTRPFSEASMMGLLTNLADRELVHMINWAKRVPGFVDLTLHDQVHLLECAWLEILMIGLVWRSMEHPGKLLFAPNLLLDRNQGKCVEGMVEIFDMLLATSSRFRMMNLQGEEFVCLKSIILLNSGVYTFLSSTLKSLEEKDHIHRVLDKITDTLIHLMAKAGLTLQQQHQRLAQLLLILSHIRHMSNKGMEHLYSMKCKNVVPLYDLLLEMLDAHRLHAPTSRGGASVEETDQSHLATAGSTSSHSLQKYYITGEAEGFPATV
Procedure, shortened: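 EC50 and efficacy came from Hill fits of beta-lactamase reporter signal (CCF4 dye, 2 h at room temperature) scaled between DMSO and 20 nM 17-beta-estradiol. Agonist mode: HEK293 ER-alpha-UAS-bla cells in charcoal/dextran-stripped serum medium, 18 h compound exposure at 37 C.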

[4] = target: Peroxisome proliferator-activated receptor delta (Homo sapiens) (UniProt Q03181); assay: qHTS assay for small molecule antagonists of peroxisome proliferator-activated receptor delta signaling (AID 588535; active = well fitted inhibition curve with a large enough effect in the signal ratio, with a control signal flat, not every such curve was filed as active; inconclusive = small, poorly fitted or top-dose-only effect, or effect the other way, or a change in a side signal; inactive = no such curve, though single readings can be large or run the other way; the % refers to the signal ratio; note: potency is the fitted concentration of half-maximal effect); settings: HEK293T PPARd-UAS-bla, beta-lactamase FRET ratio, 18 h; activity change, negative = inhibition: at 76.7 µM (top of the series)
UniProt Q03181, sequence (Q03181 whole entry, looked up): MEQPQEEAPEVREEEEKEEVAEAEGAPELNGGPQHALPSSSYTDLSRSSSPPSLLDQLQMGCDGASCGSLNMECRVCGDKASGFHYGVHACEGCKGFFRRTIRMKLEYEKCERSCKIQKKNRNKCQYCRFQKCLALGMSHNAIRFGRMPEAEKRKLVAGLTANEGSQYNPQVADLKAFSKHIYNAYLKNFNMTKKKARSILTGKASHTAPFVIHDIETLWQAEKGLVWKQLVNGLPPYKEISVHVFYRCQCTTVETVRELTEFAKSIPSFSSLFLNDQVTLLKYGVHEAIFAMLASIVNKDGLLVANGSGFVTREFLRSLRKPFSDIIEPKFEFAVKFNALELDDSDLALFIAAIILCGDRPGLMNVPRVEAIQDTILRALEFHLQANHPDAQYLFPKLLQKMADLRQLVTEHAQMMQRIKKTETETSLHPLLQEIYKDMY
Procedure, shortened: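 Fluorescence from CCF4-loaded GeneBLAzer PPAR-delta-UAS-bla HEK293T cells (2 hrs RT loading) quantified reporter inhibition after an 18 hr, 37 C compound exposure across a titration.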

[5] = target: Peroxisome proliferator-activated receptor gamma (Homo sapiens) (UniProt P37231); assay: qHTS assay for small molecule agonists of peroxisome proliferator-activated receptor gamma signaling (AID 588536; active = well fitted curve in the direction sought with a large enough effect in the signal ratio, with a control signal flat, not every such curve was filed as active; inconclusive = small, poorly fitted or top-dose-only effect, or effect the other way, or a change in a side signal; inactive = no such curve, though single readings can be large or run the other way; the % refers to the signal ratio; note: potency is the fitted concentration of half-maximal effect); settings: HEK293 PPARg-UAS-bla, beta-lactamase ratio, 16 h; activation: at 76.7 µM (top of the series), percent of rosiglitazone response, DMSO as zero
Procedure, shortened: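 Cells were plated and held 6–6.5 h at 37 C, then compounds were added as a titration series. After a further 16 h, CCF4 dye was loaded for 2 h at room temperature and emission at 460/530 nm recorded.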

[6] = target: Retinoic acid receptor RXR-alpha (Homo sapiens) (UniProt P19793); assay: qHTS assay for small molecule agonists of retinoid X receptor alpha signaling (AID 588544); settings: HEK293T RXRa-UAS-bla, beta-lactamase reporter, 18 h; activation: at 76.7 µM (top of the series); note: potency is the fitted concentration of half-maximal effect
UniProt P19793, sequence (P19793 whole entry, looked up): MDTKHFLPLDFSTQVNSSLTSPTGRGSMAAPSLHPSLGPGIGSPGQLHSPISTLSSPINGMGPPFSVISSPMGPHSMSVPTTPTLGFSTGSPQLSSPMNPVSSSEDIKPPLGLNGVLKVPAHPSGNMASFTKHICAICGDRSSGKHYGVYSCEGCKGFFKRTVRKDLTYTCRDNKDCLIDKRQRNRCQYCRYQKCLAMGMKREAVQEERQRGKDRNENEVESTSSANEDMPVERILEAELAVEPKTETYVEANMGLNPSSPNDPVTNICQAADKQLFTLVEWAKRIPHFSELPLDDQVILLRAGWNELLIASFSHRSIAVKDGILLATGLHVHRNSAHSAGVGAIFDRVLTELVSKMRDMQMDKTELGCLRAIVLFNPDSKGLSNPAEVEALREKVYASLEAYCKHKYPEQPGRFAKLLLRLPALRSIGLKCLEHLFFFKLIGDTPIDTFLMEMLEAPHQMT

[7] = target: Thyroid hormone receptor beta (Homo sapiens) (UniProt P10828); assay: qHTS assay for small molecule agonists of thyroid hormone receptor beta signaling (AID 588545); settings: TR-UAS-bla GripTite HEK 293, beta-lactamase ratio, agonist mode, 18 h; activation: at 76.7 µM, percent of T3 response, DMSO as zero
UniProt P10828, sequence (P10828 whole entry, looked up): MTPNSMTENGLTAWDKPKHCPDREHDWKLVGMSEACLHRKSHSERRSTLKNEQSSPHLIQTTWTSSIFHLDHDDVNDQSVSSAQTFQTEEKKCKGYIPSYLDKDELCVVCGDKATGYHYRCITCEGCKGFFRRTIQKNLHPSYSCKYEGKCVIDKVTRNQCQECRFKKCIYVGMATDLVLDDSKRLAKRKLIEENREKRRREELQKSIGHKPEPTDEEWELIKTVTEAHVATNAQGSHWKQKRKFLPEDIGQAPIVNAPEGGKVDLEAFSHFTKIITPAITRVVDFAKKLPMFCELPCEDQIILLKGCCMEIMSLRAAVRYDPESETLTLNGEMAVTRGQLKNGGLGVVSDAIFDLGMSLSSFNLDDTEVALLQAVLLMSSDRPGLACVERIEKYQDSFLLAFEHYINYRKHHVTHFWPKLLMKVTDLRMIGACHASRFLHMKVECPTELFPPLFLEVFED
Procedure, shortened: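 Beta-lactamase reporter activity under TR response element control is measured in HEK 293 cells after 18 hrs compound exposure. Signal is ratiometric CCF4 fluorescence, 460/530 nm.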

[8] = target: Retinoic acid receptor RXR-alpha (Homo sapiens) (UniProt P19793); assay: qHTS assay for small molecule antagonists of retinoid X receptor alpha signaling (AID 588546; active = well fitted inhibition curve with a large enough effect in the signal ratio, with a control signal flat, not every such curve was filed as active; inconclusive = small, poorly fitted or top-dose-only effect, or effect the other way, or a change in a side signal; inactive = no such curve, though single readings can be large or run the other way; the % refers to the signal ratio; note: potency is the fitted concentration of half-maximal effect;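 for max response: cells stimulated with 9-cis-retinoic acid as agonist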); settings: HEK293T RXRa-UAS-bla, beta-lactamase ratio, antagonist mode
Procedure, shortened: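 Beta-lactamase reporter inhibition, read as CCF4 fluorescence ratio (ex 405, em 460/530 nm) after 2 h at RT. HEK293T UAS-bla cells, 2500/well, were stimulated with 9-cis-RA at 500 or 100 nM final alongside test compound for 18 h at 37 C.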

[9] = qHTS assay for small molecule agonists of the antioxidant response element (ARE) signaling pathway (AID 651741; active = well fitted activation curve with a large enough effect in the signal ratio; inconclusive = small, poorly fitted or top-dose-only effect, or effect the other way, or a change in a side signal; the % refers to the signal ratio; note: potency is the fitted concentration of half-maximal effect); settings: HepG2 ARE-bla reporter, beta-lactamase FRET ratio, 16 h; activation: at 96 µM (top of the series)
Procedure, shortened: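 Stably integrated ARE-beta-lactamase reporter HepG2 cells; 16 h compound incubation, 37 C; LiveBLAzer FRET substrate 2 h at room temperature; fluorescence intensity.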

[10] = qHTS assay to identify small molecules that stimulate interleukin-8 (IL-8) secretion (AID 651758; active = well fitted activation curve with a large enough effect in the signal ratio; inconclusive = small, poorly fitted or top-dose-only effect, or effect the other way, or a change in a side signal; the % refers to the signal ratio; note: potency is the fitted concentration of half-maximal effect); settings: HTRF ratio (665/615); activation: at 92.2 µM (top of the series)
Procedure, shortened: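 Compounds are added to THP-1 cells (2000 per well) and left 16 hrs at 37 C. A labeled anti-IL-8 antibody pair is then added, and IL-8 secretion is measured by time-resolved FRET after 1-3 hrs at room temperature.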

[11] = qHTS assay for small molecule agonists of the antioxidant response element (ARE) signaling pathway measured by Nrf2-dependant transcriptional activity (AID 720636; active = well fitted curve in the direction sought with a large enough effect in the repeat runs; inconclusive = weak or mixed curves; inactive = no such curve, though single readings can be large; an effect the other way counts as inactive or inconclusive; note: potency is the fitted concentration of half-maximal effect); settings: ARE-luc HepG2, Nrf2 luciferase reporter, 16 h; series mostly up to 92.4 µM
Procedure, shortened: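 We exposed ARE-luc HepG2 cells, seeded in assay medium with 1% dialyzed FBS and allowed 6 hr to adhere, to test compounds overnight (16 hr, 37 C) before measuring luciferase with ONE-Glo.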

[12] = target: Peroxisome proliferator-activated receptor gamma (Homo sapiens) (UniProt P37231); assay: qHTS assay for small molecule antagonists of peroxisome proliferator-activated receptor gamma signaling (AID 588537; active = well fitted inhibition curve with a large enough effect in the signal ratio, with a control signal flat, not every such curve was filed as active; inconclusive = small, poorly fitted or top-dose-only effect, or effect the other way, or a change in a side signal; the % refers to the signal ratio; note: potency is the fitted concentration of half-maximal effect;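 note: reporter cells co-stimulated with 50 nM rosiglitazone agonist during compound treatment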); settings: HEK293 PPARg-UAS-bla, beta-lactamase ratio, antagonist mode; activity, negative = inhibition: at 76.8 µM (top of the series)
Procedure, shortened: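 Fluorescence at 460 and 530 nm (405 nm excitation) reported beta-lactamase cleavage of CCF4 after 2 h room-temperature loading. HEK293 reporter cells in 1% charcoal/dextran-treated FBS had received compound and rosiglitazone for 16 h.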

[13] = target: Thyroid hormone receptor beta (Homo sapiens) (UniProt P10828); assay: qHTS assay for small molecule antagonists of thyroid hormone receptor beta signaling (AID 588547; active = well fitted inhibition curve with a large enough effect in the signal ratio, with a control signal flat, not every such curve was filed as active; inconclusive = small, poorly fitted or top-dose-only effect, or effect the other way, or a change in a side signal; the % refers to the signal ratio; note: potency is the fitted concentration of half-maximal effect;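 for activity change % (negative = inhibition): cells stimulated with 0.4 nM T3 agonist during compound exposure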); settings: TR-UAS-bla HEK293, beta-lactamase ratio, antagonist mode, 18 h
Procedure, shortened: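 TR-UAS-bla GripTite HEK293 cells in 2% charcoal/dextran FBS medium; compounds 0.59 nM to 92 uM with T3 at 0.4nM final, 18 h at 37 C. Beta-lactamase read by CCF4 fluorescence (460/530 nm); Hill fits gave IC50 and efficacy.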

[14] = MultiTox-Fluor Cytotoxicity Assay - LYMP1-002 - Dead Cells (AID 960; active = well fitted curve in the direction sought with a large enough effect; inconclusive = small, poorly fitted or top-dose-only effect, or another doubt; inactive = no such curve, though single readings can be large; an effect the other way counts as inactive or inconclusive; note: potency is the fitted concentration of half-maximal effect; nearly all actives have a fitted effect of over 60% in size); settings: LYMP1-002 lymphoblastoid cells, dead-cell protease fluorescence; cytotoxicity (dead cells): at 46.1 µM (top of the series)
Procedure, shortened: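 Dead-cell fluorescence (Ex/Em 485/520) after 16 h compound exposure at 37 C of LYMP1-002 lymphoblastoid cells in complete medium; AC50 by Hill equation, with data scaled between DMSO and 15 uM tetraoctylammonium bromide.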

[15] = target: Glucocorticoid receptor (Homo sapiens) (UniProt P04150); assay: qHTS assay for small molecule antagonists of glucocorticoid receptor signaling (AID 588533; active = well fitted inhibition curve with a large enough effect in the signal ratio, with a control signal flat, not every such curve was filed as active; inconclusive = small, poorly fitted or top-dose-only effect, or effect the other way, or a change in a side signal; the % refers to the signal ratio;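 note: cells stimulated with 2 nM dexamethasone as agonist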; note: potency is the fitted concentration of half-maximal effect); settings: HeLa MMTV-bla, GRE beta-lactamase ratio, antagonist mode, 18 h; activity change, negative = inhibition: at 76.8 µM (top of the series)
[16] = qHTS assay for small molecule antagonists of the retinoid-related orphan receptor gamma (ROR-gamma) signaling pathway - cell viability counter screen (AID 720652; active = well fitted curve in the direction sought with a large enough effect in the repeat runs; inconclusive = weak or mixed curves; inactive = no such curve, though single readings can be large; an effect the other way counts as inactive or inconclusive;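 note: potency is the fitted concentration of half-maximal effect; compound exposure lasted 16 hr before ATP read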); settings: RORgamma reporter cell line viability counter screen; series mostly up to 92.2 µM
Procedure, shortened: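 Cytotoxicity counter screen: intracellular ATP (CellTiter-Glo luminescence) measured in the doxycycline-induced CHO RORE-luciferase reporter line after 16 hr compound exposure at 37 C, 5% CO2.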

[17] = MultiTox-Fluor Cytotoxicity Assay - LYMP1-001 - Live Cells (AID 947; active = well fitted curve in the direction sought with a large enough effect; inconclusive = small, poorly fitted or top-dose-only effect, or another doubt; inactive = no such curve, though single readings can be large; an effect the other way counts as inactive or inconclusive; note: potency is the fitted concentration of half-maximal effect); settings: LYMP1-001 lymphoblastoid cells, live-cell protease fluorescence viability; series mostly up to 92.2 µM
[18] = target: Estrogen receptor (Homo sapiens) (UniProt P03372); assay: qHTS assay for small molecule antagonists of estrogen receptor alpha signaling (AID 588513; active = well fitted curve in the direction sought with a large enough effect in the signal ratio, with a control signal flat, not every such curve was filed as active; inconclusive = small, poorly fitted or top-dose-only effect, or effect the other way, or a change in a side signal; inactive = no such curve, though single readings can be large or run the other way; the % refers to the signal ratio; note: potency is the fitted concentration of half-maximal effect); settings: ER-alpha-UAS-bla HEK293, beta-lactamase ratio, antagonist mode; activity, negative = inhibition: at 76.9 µM (top of the series)
Procedure, shortened: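 Beta-lactamase reporter, antagonist mode, HEK 293 GripTite cells; 0.5nM E2 stimulus, 18 h, 37 C; CCF4 dye 2 h RT; fluorescence. IC50 and efficacy from Hill fits, normalized to E2 and DMSO.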

[19] = Cell Viability - H-4-II-E (AID 543; active = well fitted curve in the direction sought with a large enough effect; inconclusive = small, poorly fitted or top-dose-only effect, or another doubt; inactive = no such curve, though single readings can be large; an effect the other way counts as inactive or inconclusive; note: potency is the fitted concentration of half-maximal effect; nearly all actives have a fitted effect of over 35% in size); settings: H-4-II-E rat hepatoma viability; series mostly up to 92.2 µM
Procedure, shortened: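 CellTiter-Glo luminescence (intracellular ATP) measured after 40 h compound exposure at 37 °C in H-4-II-E rat hepatoma cells seeded at 1500/well. Values are AC50s fitted with the standard Hill equation.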
Tags give direction and shape of the fitted curve or compound fluorescence and quenching.

N#C/C=C/C#N
Potency [1]: inconclusive [partial curve]
Potency [2]: active: 25.1 µM
activation [3]: inconclusive: 21.5%
Potency [4]: inconclusive [side channel, rising, single point]
Potency [5]: inconclusive [activator, full curve]
Potency [6]: inconclusive [falling, partial curve, poor fit]
activation [7]: inconclusive: -47.3%
max response [8]: inconclusive: -35%
Potency [9]: active: 37.6 µM
Potency [10]: inconclusive [inhibitor, single point]
Potency [11]: inconclusive [activator, partial curve, poor fit]

Cc1ccc([N+](=O)[O-])cc1C
activation [3]: inconclusive: 50.6%
Potency [4]: inconclusive [fluorescent, side channel, single point] and inactive
Potency [5]: inactive
activity, negative = inhibition [12]: inconclusive: 10.2%
Potency [6]: inconclusive [inhibitor, partial curve, poor fit]
activity change % (negative = inhibition) [13]: inactive: 13% and inactive: 10.3%
activation [9]: inconclusive: 8%
Potency [10]: inactive

O=[N+]([O-])c1cccc(CCl)c1
Potency [14]: inconclusive [cytotoxic, full curve, poor fit]
Potency [2]: inconclusive [cytotoxic, full curve, poor fit]
Potency [15]: inactive
Potency [9]: active: 42.2 µM
Potency [10]: inconclusive [activator, single point]
Potency [16]: inconclusive [cytotoxic, partial curve, poor fit]

ClC1=C(Cl)C2(Cl)C3C(Cl)C=CC3C1(Cl)C2(Cl)Cl (configuration not stated)
Potency [1]: inconclusive [single point]
Potency [17]: inconclusive [cytotoxic, full curve, poor fit]
Potency [14]: inconclusive [cytotoxic, partial curve, poor fit]
Potency [2]: inconclusive [cytotoxic, partial curve, poor fit]
Potency [18]: inactive
Potency [3]: inconclusive [fluorescent, side channel, partial curve, poor fit]
Potency [15]: inactive
Potency [5]: inconclusive [cytotoxic, side channel, partial curve, poor fit]
activation [6]: inconclusive: -31.2%
Potency [9]: inconclusive [activator, partial curve]
Potency [10]: active: 26.6 µM
Potency [16]: inconclusive [cytotoxic, single point]

C=CC(=O)OCCO
Potency [1]: inconclusive [single point]
Potency [19]: inconclusive [falling, partial curve]
Potency [2]: inconclusive [cytotoxic, partial curve, poor fit]
Potency [15]: inconclusive [activator, partial curve, poor fit]
activity change % (negative = inhibition) [13]: inactive: 12.5%
Potency [9]: active: 37.6 µM
Potency [10]: inconclusive [falling, single point]
Potency [16]: inconclusive [rising, partial curve, poor fit]

[Cd+2].[Cl-].[Cl-]
Potency [18]: active: 44.7 µM [inconclusive]
Potency [4]: inconclusive [side channel, rising, partial curve]
Potency [5]: inconclusive [activator, full curve, poor fit]
Potency [12]: inconclusive [side channel, rising, partial curve]
activation [6]: inconclusive: -38%
activation [7]: inactive: -4.54%
Potency [8]: inconclusive [side channel, rising, partial curve]
Potency [13]: inconclusive [side channel, rising, full curve, poor fit]
activation [10]: inconclusive: -16.1%
Potency [11]: active: 0.841 µM
Potency [16]: active: 21.1 µM

Clc1cc(Cl)c(Cl)c(Cl)c1
Potency [18]: inconclusive [falling, single point]
activity change, negative = inhibition [15]: inconclusive: 11.6%
activity change, negative = inhibition [4]: inconclusive: 8.77%
Potency [6]: inactive
activation [9]: inconclusive: -0.107%
Potency [10]: inactive
